60 compounds from PubChem BioAssay AID1963576 (National Center for Advancing Translational Sciences (NCATS), 2024) can be followed below.

Hit rate of the full screen: of about 46,000 compounds, about 60 (0.1%) were called active. Roughly 3% stayed inconclusive and do not appear here. Calls come from the whole dose curve; as a rule, active = well fitted inhibition curve with a large enough effect; inconclusive = small, poorly fitted or top-dose-only effect; inactive = no such curve, though single readings can be large or run the other way. This is one part of the list.

The nature of the assay: Primary qHTS assay for Inhibitors of ovarian cancer metastasis using an organotypic tumor microenvironment (TME) model.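 For activity change, negative = inhibition: plate controls were DMSO wells for no effect and tomatine positive control wells for full effect.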 Note: nearly all actives have a fitted effect of over 65% in size. The following applies: SKOV3ip1-GFP adhesion/invasion on 3D omental model, fluorescence; series mostly up to 45.8 µM; activity change, negative = inhibition: at the top concentration. In short, it runs like this:
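A 3D layer of primary human omental fibroblasts, mesothelial cells, fibronectin and collagen I, grown 48 hr, received SKOV3ip1-GFP cells in serum-free medium plus compounds at 0.36-46 umol/L. After 2 hr RT and 16 hr 37 C, fixed adherent GFP cells were counted; normalized to DMSO and tomatine.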
For orientation: Quantitative high-throughput screening tests each substance at several concentrations.
Regarding `Cc1cc(F)ccc1NC(=O)C1CCCN(S(=O)(=O)c2ccc3c(c2)CCCC(=O)N3)C1` (stereo not given), the “activity change, negative = inhibition” value is inactive: 8.88%. On the same count and under the same terms, to `COc1ccccc1CNC(=O)c1ccc(-c2nc(CS(=O)c3ccccc3)c(C)o2)cc1` (stereo not given) belongs inactive: 8.46%. For the compound `CCCCn1cc(S(=O)(=O)c2ccc(F)cc2)c(=O)c2ccccc21`, the “activity change, negative = inhibition” value is inactive: -8.48%. Still for that read-out and setting: the same measure for `Cc1ccc(Cl)cc1NC(=O)CN1C(=O)COc2ccc(S(=O)(=O)N3CCOCC3)cc21`: inactive: -22.7%; for `CCc1cc2c(cc3c(=O)n(CC(=O)N4CCCCC4)ncn32)s1`: inactive: 8.79%.

As for `CCOc1ccc2nc(N3CCCC(C(=O)Nc4cccc(Cl)c4C)C3)sc2c1` (stereo not given), the “activity change, negative = inhibition” value was inactive: 4.17%. Regarding `CCCCN(CCCC)CCNC(=O)c1cc(-c2cccnc2)nc2ccc(S(=O)(=O)N3CCC(C)CC3)cc12`, the compound was classed as inactive. Regarding `O=C(Cc1ccc(NC(=O)N2CCCCc3ccccc32)cc1)NCc1ccccc1`, the compound was classed as inactive.

On to `Cc1ccc2[nH]c(CSc3nnc(COc4ccccc4C)n3C)cc(=O)c2c1`, for which the call was inactive. Take `Cc1ccc(CN2CCNCC2)cc1NC(=O)CNc1ccc(F)c(F)c1`: the “activity change, negative = inhibition” value is inactive: 4.99%.

As for `Cc1ccc(-n2c(=O)c3ccc(C(=O)NCc4ccccc4Cl)cc3n(CC(=O)Nc3cccc(F)c3)c2=O)cc1`, the “activity change, negative = inhibition” value is inactive: -22%. For the compound `COc1cccc(CNC(=O)CN2C(=O)CSc3c2c(C)nn3-c2ccccc2)c1`, the outcome was inactive. As to `CCOc1ccc(N2C(=O)N(Cc3c(F)cccc3Cl)c3ccccc3S2(=O)=O)cc1`, the “activity change, negative = inhibition” value is inactive: 19.5%. On the same count and under the same terms, to `Cc1ccc2[nH]c3c(=O)n(CC(=O)N4CCN(c5cccc(C(F)(F)F)c5)CC4)ncc3c2c1` belongs inactive: 33.5%; to `CN(C)c1ccc(CN(CC2CCCO2)C(=O)c2ccc(Br)cc2)cc1` (stereo not given), inactive: -7.38%.

As for `Cc1cc2c(cc1C)NC(CC(=O)Nc1ccccc1SC(F)(F)F)C(=O)N2` (stereo not given), the outcome was inactive. With `CCCCOc1ccc(NC(=O)Cn2nnnc2-c2ccccc2F)cc1`, the “activity change, negative = inhibition” value was inactive: -0.216%.

For the compound `COc1cc2c(Nc3ccc(Cl)c(Cl)c3F)ncnc2cc1OCC1C[C@@H]2CN(C)C[C@H]2C1`, the “activity change, negative = inhibition” value was inactive: -26%.

As to `O=C(COCc1cc(-c2cccs2)on1)Nc1ccc(OC(F)(F)F)cc1`, the “activity change, negative = inhibition” value was inactive: -1.84%. On the same count and under the same terms, to `O=S(=O)(O)CCSSCCS(=O)(=O)O` belongs inactive: 17.1%; to `COc1ccc2ncc3c(-c4ccc(C)c(C)c4)nn(CC(=O)NC4CCCCC4)c3c2c1`, inactive: -7.58%; to `Cc1ccc(S(=O)(=O)c2nc(-c3ccco3)oc2SCC(C)C)cc1`, inactive: -5.94%.

As to `COc1cc(OC)c(NC(=O)Cn2cnc3sc(C)c(S(=O)(=O)N4CCN(C)CC4)c3c2=O)cc1Cl`, the “activity change, negative = inhibition” value is inactive: -0.162%. For `CC(C)(C)OC(=O)N1CCC(c2c(C(=O)Nc3ccc4c(c3)OCCO4)cnn2-c2ccccc2)CC1`, the compound was called inactive. As for `CCc1ccc(NC(=O)c2nn(-c3ccc(C)cc3)c(=O)n(C)c2=O)cc1`, the “activity change, negative = inhibition” value is inactive: 2.11%. Same read-out and setting: the same measure for `CCOc1ccc(Br)cc1CNCCSc1nnnn1-c1ccccc1`: inactive: -21.1%; for `CCc1ccccc1NC(=O)CN1C(=O)c2cccnc2Oc2ccc(Cl)cc21`: inactive: -21.5%. With `Cc1ccc(C)c(NC(=O)C(=O)NCCc2csc3nc(-c4ccccc4C)nn23)c1`, the “activity change, negative = inhibition” value was inactive: -1.75%. The same measure, in the same setting: the same measure for `CCOC(=O)c1oc2c(c1C)-c1nn(Cc3ccccc3Cl)cc1CC2`: inactive: -9.56%; for `COc1ccc(CNC(=O)c2cc3c(s2)-c2c(C)cccc2OC3)cc1`: inactive: -1.62%; for `CO[C@H]1C(=O)[C@]2(C)[C@@H](OC)C[C@H]3OC[C@@]3(OC(C)=O)[C@H]2[C@H](OC(=O)c2ccccc2)[C@]2(O)C[C@H](OC(=O)[C@H](O)[C@@H](NC(=O)OC(C)(C)C)c3ccccc3)C(C)=C1C2(C)C`: inactive: 7.55%.

On to `COC(=O)NCc1c(C)nn(-c2ccccc2)c1-n1cccc1`, for which the “activity change, negative = inhibition” value was inactive: 15.7%. Consider `CCN1CCN(Cc2c(O)ccc3c(C)c(-c4ccccc4)c(=O)oc23)CC1`, for which the “activity change, negative = inhibition” value is inactive: 0.902%.

With `CCCCN1C(=O)CN(C2CCCCC2)C(=O)C1c1ccc(OC(C)C)c(OC)c1` (stereo not given), the compound was classed as inactive. As to `Cc1cccc(-n2ncc(C(=O)NCc3ccccn3)c2C2CCN(C(=O)OC(C)(C)C)CC2)c1`, the “activity change, negative = inhibition” value was inactive: -10.5%. Still for that read-out and setting: the same measure for `CNC(=O)c1sc2ncccc2c1-n1cccc1`: inactive: -16.1%; for `CCCS(=O)(=O)N1CC(=O)N(c2ccccc2C)C(C)(C(=O)NC2CCCC2)C1` (stereo not given): inactive: 4.31%. For `COc1ccc(NC(=O)CC2C(=O)N(c3ccc(C)cc3)C(=O)N2Cc2cccnc2)cc1` (stereo not given), the “activity change, negative = inhibition” value is inactive: 17.3%. Turning to `CCOC(=O)N1CCC2(CC1)OC(=O)C(C)=C2C(=O)NCc1cccc(OC)c1`, the “activity change, negative = inhibition” value is inactive: 11.4%. Take `Cc1cc(NC(=O)Cn2nc(C)n3cccc3c2=O)ccc1Br`: the “activity change, negative = inhibition” value is inactive: 6.19%. With `Cn1c(=O)n(-c2cccc(Cl)c2)c(=O)c2sc3ccccc3c21`, the outcome was inactive. In the case of `Cc1ccc(NC(=O)Cn2c(=O)n(CCC(=O)NCc3ccc4c(c3)OCO4)c(=O)c3sccc32)c(C)c1`, the “activity change, negative = inhibition” value was inactive: -20.7%. On the same count and under the same terms, the same measure for `Cc1ccc(NC(=O)C(c2ccccc2)N2Cc3ccccc3C2=O)cc1Cl` (stereo not given): inactive: 7.05%. Same read-out and setting: the same measure for `Cc1ccc(C)c(N2CCN(c3nc4ccccc4n4c(C)nnc34)CC2)c1`: inactive: -0.026%. Take `O=C(CSc1nc2c(c(=O)[nH]1)CCCC2)Nc1ccc(Br)cc1`: the call was inactive. Still for that read-out and setting: to `COc1ccc(CNc2cc(-c3ccc(OC)cc3)nc3nncn23)cc1` belongs “inactive”.

Consider `COc1ccccc1Nc1nn2c(=O)c3ccc(C(=O)NCc4ccc(F)cc4)cc3nc2s1`, for which the “activity change, negative = inhibition” value was inactive: -13.5%.

As for `COc1ccc(NC(=O)c2c(C)oc3ccc(O)c(CN4CCC(C)CC4)c23)cc1`, the result was inactive. On to `O=C(NCCc1ccccc1)C(=O)NCC(c1cccnc1)N1CCN(c2ccccc2F)CC1` (stereo not given), for which the “activity change, negative = inhibition” value was inactive: 9.57%.

Regarding `CC(C)CCNC(=O)C1CCN(C(=O)N2CCOc3ccc(Cl)cc32)CC1`, the call was inactive. As to `COc1ccc(C(=O)Nc2ccc(-c3cc4ccccc4oc3=O)c(C)c2)cc1OC`, the “activity change, negative = inhibition” value was inactive: 0.0988%.

Regarding `CCc1cccc2c(-c3ccc(F)cc3)nc(SCC(=O)Nc3ccccc3)nc12`, the “activity change, negative = inhibition” value is inactive: -0.654%. Still for that read-out and setting: to `Cc1ccc(CNC(=O)C(=O)NCC(c2ccco2)S(=O)(=O)c2cccs2)cc1` (stereo not given) belongs inactive: 17%. Consider `CCN1CCN(C(c2ccc(F)cc2)c2c(O)cc(C)n(CCOC)c2=O)CC1` (stereo not given), for which the compound was called inactive.

Consider `COc1ccc(CCNC(=O)c2ccc(CS(=O)(=O)Cc3cccc(C)c3)o2)cc1OC`, for which the “activity change, negative = inhibition” value is inactive: -4.03%. Regarding `CSc1cccc(NC(=O)N2CCN(c3cc(-c4noc(C)n4)ccc3C)CC2)c1`, the outcome was inactive. For `COc1ccc(-c2n[nH]c3c2C(c2ccc(O)cc2)N(c2ccc(Br)cc2)C3=O)cc1` (stereo not given), the “activity change, negative = inhibition” value is inactive: -9.18%.

Consider `CCOc1ccc(NC(=O)CSc2cn(CC(=O)N3CCCCCC3)c3ccccc23)cc1`, for which the “activity change, negative = inhibition” value is inactive: -11.7%.

For the compound `C=C(C)CSc1nc2sc3c(c2c(=O)n1-c1ccccc1)CCC(C)C3` (stereo not given), the “activity change, negative = inhibition” value was inactive: -4.69%. `CCN1CCN(c2ncnc3c2cnn3-c2ccc(C)cc2)CC1`: the “activity change, negative = inhibition” value was inactive: -0.131%.
